Consider 9 variants from the supplement of paper PMC12217912.

B1: TEV protease; numbered along this chain (parent)
chain: MGESLFKGPRDYNPISSSICHLTNESDGHTTSLYGIGFGPFIITNKHLFRRNNGTLVVQSLHGVFKVKDTTTLQQHLVDGRDMIIIRMPKDFPPFPQKLKFREPQREERICLVTTNFQTKSMSSMVSDTSCTFPSGDGIFWKHWIQTKDGQCGSPLVSTRDGFIVGIHSASNFTNTNNYFTSVPKNFMELLTNQEAQQWVSGWRLNADSVLWGGHKVFMVKPEEPFQPVKEATQL

The other results are listed elsewhere or left out. The full chains were built here from the parent and the listed change. Inactive controls read about 0.05.

The variants in this experiment derive from B1. The experiment can be described thus: raw area under fraction-flipped curve 0-4 h after induction (AUC4h, not background-subtracted), DNA-recorder readout of cleavage of the substrate (dimensionless); higher = more cleavage of the substrate by the protease variant. The conditions noted are these: temperature: 34 °C; time window: 0-4 h after rhamnose induction. How it is done:
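In vivo DNA recorder in E. coli TOP10(DE3) ΔrhaA at 34 °C. Each TEVp single-site mutant (parent TEVp 0) is paired with a single-site variant of the 7-mer TEVs (canonical ENLYFQ|S). The substrate sits between flexible linkers in a Bxb1-sfGFP-TEVs-SsrA fusion, so cleavage stabilises Bxb1 and speeds flipping of a recombination array, read by NGS. The value is the raw area under the fraction-flipped curve over 0-4 h after rhamnose induction (AUC4h), with ≥20 reads per time point. It is not background-subtracted; inactive controls average about 0.047.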
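Further: Bxb1 expression induced with 0.2% (w/v) L-rhamnose at OD600 near 0.5, cultures sampled hourly, flipped fraction per protease–substrate barcode pair counted by paired-end Illumina sequencing.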

For the variant MGESLFKGPRDYNPISSSICHLTNESDGHTTSLYGIGFGPFIITNKHLFRRNNGTLVVQSLHGVFKVKDTTTLQQHLVDGRDMIIIRMPKDFPPFPQKLKFREPQREERICLVTTNFQTKSMSSMVSDTSCTFPSGDGIFWKHWIQTKDGQCGSPLVSTRDGFIVGIHSASNFTNTNNYFTSVPKNFMELLTNQEAQQWVSGWRLNADSVLWGGHKVFMVKPEEPFQPVKEATYL [Q234Y], the “area with substrate ENLYAQS” value turned out to be 0.0849, the “area with substrate ENLYCQS” value came out at 0.0783, the “area with substrate ENLYDQS” value came to 0.0672 and the “area with substrate ENLYEQS” value came out at 0.0598. Further, the “area with substrate ENLYGQS” value worked out at 0.0653, the “area with substrate ENLYHQS” value is 0.0571, the “area with substrate ENLYIQS” value worked out at 0.108 and the “area with substrate ENLYKQS” value is 0.0599. Further, the “area with substrate ENLYMQS” value worked out at 0.113, the “area with substrate ENLYNQS” value came to 0.079, the “area with substrate ENLYPQS” value came out at 0.0772 and the “area with substrate ENLYQQS” value came out at 0.0582. Also, the “area with substrate ENLYSQS” value came to 0.0729, the “area with substrate ENLYTQS” value was 0.0602, the “area with substrate ENLYWQS” value was 0.0772 and the “area with substrate ENLYYQS” value turned out to be 0.0505.

With MGESLFKGPTDYNPISSSICHLTNESDGHTTSLYGIGFGPFIITNKHLFRRNNGTLVVQSLHGVFKVKDTTTLQQHLVDGRDMIIIRMPKDFPPFPQKLKFREPQREERICLVTTNFQTKSMSSMVSDTSCTFPSGDGIFWKHWIQTKDGQCGSPLVSTRDGFIVGIHSASNFTNTNNYFTSVPKNFMELLTNQEAQQWVSGWRLNADSVLWGGHKVFMVKPEEPFQPVKEATQL [R10T], the “area with substrate ENLYCQS” value is 0.0986, the “area with substrate ENLYHQS” value is 0.0705, the “area with substrate ENLYIQS” value was 0.111 and the “area with substrate ENLYKQS” value worked out at 0.0675. The “area with substrate ENLYMQS” value is 0.0914, the “area with substrate ENLYNQS” value is 0.0538, the “area with substrate ENLYQQS” value is 0.066 and the “area with substrate ENLYSQS” value stood at 0.0771.

As for MGESWFKGPRDYNPISSSICHLTNESDGHTTSLYGIGFGPFIITNKHLFRRNNGTLVVQSLHGVFKVKDTTTLQQHLVDGRDMIIIRMPKDFPPFPQKLKFREPQREERICLVTTNFQTKSMSSMVSDTSCTFPSGDGIFWKHWIQTKDGQCGSPLVSTRDGFIVGIHSASNFTNTNNYFTSVPKNFMELLTNQEAQQWVSGWRLNADSVLWGGHKVFMVKPEEPFQPVKEATQL [L5W], the “area with substrate ENLYCQS” value amounted to 0.0844, the “area with substrate ENLYDQS” value came out at 0.0473, the “area with substrate ENLYEQS” value turned out to be 0.0825 and the “area with substrate ENLYGQS” value is 0.0647. Also, the “area with substrate ENLYHQS” value came to 0.081, the “area with substrate ENLYKQS” value stood at 0.0755, the “area with substrate ENLYLQS” value was 0.0802 and the “area with substrate ENLYNQS” value turned out to be 0.0665. Moreover, the “area with substrate ENLYPQS” value stood at 0.0806, the “area with substrate ENLYRQS” value came out at 0.0621, the “area with substrate ENLYSQS” value stood at 0.0746 and the “area with substrate ENLYVQS” value amounted to 0.14. The “area with substrate ENLYWQS” value was found to be 0.0844.

Take MGESLFKGPRDYNPISSSICHLTNESDGHTTSLAGIGFGPFIITNKHLFRRNNGTLVVQSLHGVFKVKDTTTLQQHLVDGRDMIIIRMPKDFPPFPQKLKFREPQREERICLVTTNFQTKSMSSMVSDTSCTFPSGDGIFWKHWIQTKDGQCGSPLVSTRDGFIVGIHSASNFTNTNNYFTSVPKNFMELLTNQEAQQWVSGWRLNADSVLWGGHKVFMVKPEEPFQPVKEATQL [Y34A]: the “area with substrate ENLYCQS” value was 0.0747, the “area with substrate ENLYDQS” value amounted to 0.0639, the “area with substrate ENLYGQS” value was 0.0513 and the “area with substrate ENLYHQS” value is 0.0522. Moreover, the “area with substrate ENLYKQS” value worked out at 0.0241, the “area with substrate ENLYNQS” value worked out at 0.075, the “area with substrate ENLYPQS” value came to 0.0632 and the “area with substrate ENLYRQS” value amounted to 0.0604. The “area with substrate ENLYVQS” value was 0.0538 and the “area with substrate ENLYWQS” value is 0.0608.

On to MGESLFKGIRDYNPISSSICHLTNESDGHTTSLYGIGFGPFIITNKHLFRRNNGTLVVQSLHGVFKVKDTTTLQQHLVDGRDMIIIRMPKDFPPFPQKLKFREPQREERICLVTTNFQTKSMSSMVSDTSCTFPSGDGIFWKHWIQTKDGQCGSPLVSTRDGFIVGIHSASNFTNTNNYFTSVPKNFMELLTNQEAQQWVSGWRLNADSVLWGGHKVFMVKPEEPFQPVKEATQL [P9I], for which the “area with substrate ENLYCQS” value amounted to 0.0867, the “area with substrate ENLYEQS” value was found to be 0.0653, the “area with substrate ENLYGQS” value worked out at 0.0968 and the “area with substrate ENLYHQS” value came to 0.0688. The “area with substrate ENLYKQS” value worked out at 0.0243, the “area with substrate ENLYLQS” value was 0.105, the “area with substrate ENLYMQS” value was found to be 0.121 and the “area with substrate ENLYNQS” value amounted to 0.0795. In addition, the “area with substrate ENLYRQS” value amounted to 0.0685, the “area with substrate ENLYSQS” value is 0.0654, the “area with substrate ENLYVQS” value was found to be 0.111 and the “area with substrate ENLYWQS” value came to 0.0814. Further, the “area with substrate ENLYYQS” value was determined as 0.0568.

Consider MCESLFKGPRDYNPISSSICHLTNESDGHTTSLYGIGFGPFIITNKHLFRRNNGTLVVQSLHGVFKVKDTTTLQQHLVDGRDMIIIRMPKDFPPFPQKLKFREPQREERICLVTTNFQTKSMSSMVSDTSCTFPSGDGIFWKHWIQTKDGQCGSPLVSTRDGFIVGIHSASNFTNTNNYFTSVPKNFMELLTNQEAQQWVSGWRLNADSVLWGGHKVFMVKPEEPFQPVKEATQL [G2C], for which the “area with substrate ENLYCQS” value is 0.0479, the “area with substrate ENLYMQS” value was found to be 0.111, the “area with substrate ENLYPQS” value stood at 0.0854 and the “area with substrate ENLYSQS” value was determined as 0.075.

On to MLESLFKGPRDYNPISSSICHLTNESDGHTTSLYGIGFGPFIITNKHLFRRNNGTLVVQSLHGVFKVKDTTTLQQHLVDGRDMIIIRMPKDFPPFPQKLKFREPQREERICLVTTNFQTKSMSSMVSDTSCTFPSGDGIFWKHWIQTKDGQCGSPLVSTRDGFIVGIHSASNFTNTNNYFTSVPKNFMELLTNQEAQQWVSGWRLNADSVLWGGHKVFMVKPEEPFQPVKEATQL [G2L], for which the “area with substrate ENLYCQS” value stood at 0.133, the “area with substrate ENLYEQS” value amounted to 0.0701, the “area with substrate ENLYIQS” value came to 0.14 and the “area with substrate ENLYKQS” value amounted to 0.0223. In addition, the “area with substrate ENLYRQS” value stood at 0.0543, the “area with substrate ENLYVQS” value is 0.157 and the “area with substrate ENLYYQS” value was found to be 0.0621.

As for MGESLFKGPRDYNPISSSICHLTNESDGHTTSLYGIGFGPFIITNKHLFRRNNGTLVVQSLHGVFKVKDTTTLQQHLVDGRDMIIIRMPKDFPPFPQKLKFREPQREERICLVTTNFQTKSMSSMVSDTSCTFPSGDGIFWKHWIQTKDGQCGSPLVSTRDGFIVGIHSASNFTNTNNYFTSVPKNFMELLTNQEAQQWVSGWRLNADSVLWGGHKVFMVKPEEPFCPVKEATQL [Q227C], the “area with substrate ENLYAQS” value turned out to be 0.0553, the “area with substrate ENLYCQS” value came to 0.116, the “area with substrate ENLYEQS” value amounted to 0.0596 and the “area with substrate ENLYGQS” value came to 0.0659. Further, the “area with substrate ENLYHQS” value was found to be 0.0528, the “area with substrate ENLYIQS” value was 0.126, the “area with substrate ENLYKQS” value is 0.0167 and the “area with substrate ENLYMQS” value came out at 0.0907. Moreover, the “area with substrate ENLYNQS” value came to 0.0741, the “area with substrate ENLYRQS” value was determined as 0.0569, the “area with substrate ENLYSQS” value amounted to 0.0654 and the “area with substrate ENLYTQS” value was 0.0697. The “area with substrate ENLYWQS” value came to 0.0923 and the “area with substrate ENLYYQS” value turned out to be 0.0749.

For the variant MGESLFKGPRDYNPISSSICHLTNESDGHTTSLYGIGFGPFIITNKHLFRRNNGTLVVQSLHGVFKVKDTTTLQQHLVDGRDMIIIRMPKDFPPFPQKLKFREPQREERICLVTTNFQTKSMSSMVSDTSCTFPSGDGIFWKHWIQTKDGQCGSPLVSTRDGFIVGIHSASNFTNTNNYFTSVPKNFMELLTNQEAQQWVSGWRLNADSVLWGGHKVFMVKPEEPFQPAKEATQL [V229A], the “area with substrate ENLYAQS” value worked out at 0.0774, the “area with substrate ENLYDQS” value was found to be 0.0553, the “area with substrate ENLYEQS” value came out at 0.0545 and the “area with substrate ENLYGQS” value was 0.0736. Also, the “area with substrate ENLYIQS” value was determined as 0.123, the “area with substrate ENLYKQS” value came out at 0.0262, the “area with substrate ENLYMQS” value worked out at 0.0866 and the “area with substrate ENLYNQS” value is 0.0636. The “area with substrate ENLYPQS” value stood at 0.073, the “area with substrate ENLYQQS” value turned out to be 0.0501, the “area with substrate ENLYSQS” value turned out to be 0.0772 and the “area with substrate ENLYVQS” value was determined as 0.129. The “area with substrate ENLYWQS” value stood at 0.072 and the “area with substrate ENLYYQS” value worked out at 0.0856.
